The whole screen tested about 310,000 compounds, of which about 2,200 (0.71%) showed an effect of 50% or more. The effect is printed as a negative number. Some of the results follow.

Results on 92 compounds are retold here after PMC4336329 (PLoS ONE, 2015).

In the assay the target is human ether-à-go-go-related gene (hERG) potassium channel (human, UniProt Q12809). Description: primary screen, population patch clamp on CHO cells stably expressing hERG.
Chain of human ether-à-go-go-related gene (hERG) potassium channel (Q12809 whole entry, looked up): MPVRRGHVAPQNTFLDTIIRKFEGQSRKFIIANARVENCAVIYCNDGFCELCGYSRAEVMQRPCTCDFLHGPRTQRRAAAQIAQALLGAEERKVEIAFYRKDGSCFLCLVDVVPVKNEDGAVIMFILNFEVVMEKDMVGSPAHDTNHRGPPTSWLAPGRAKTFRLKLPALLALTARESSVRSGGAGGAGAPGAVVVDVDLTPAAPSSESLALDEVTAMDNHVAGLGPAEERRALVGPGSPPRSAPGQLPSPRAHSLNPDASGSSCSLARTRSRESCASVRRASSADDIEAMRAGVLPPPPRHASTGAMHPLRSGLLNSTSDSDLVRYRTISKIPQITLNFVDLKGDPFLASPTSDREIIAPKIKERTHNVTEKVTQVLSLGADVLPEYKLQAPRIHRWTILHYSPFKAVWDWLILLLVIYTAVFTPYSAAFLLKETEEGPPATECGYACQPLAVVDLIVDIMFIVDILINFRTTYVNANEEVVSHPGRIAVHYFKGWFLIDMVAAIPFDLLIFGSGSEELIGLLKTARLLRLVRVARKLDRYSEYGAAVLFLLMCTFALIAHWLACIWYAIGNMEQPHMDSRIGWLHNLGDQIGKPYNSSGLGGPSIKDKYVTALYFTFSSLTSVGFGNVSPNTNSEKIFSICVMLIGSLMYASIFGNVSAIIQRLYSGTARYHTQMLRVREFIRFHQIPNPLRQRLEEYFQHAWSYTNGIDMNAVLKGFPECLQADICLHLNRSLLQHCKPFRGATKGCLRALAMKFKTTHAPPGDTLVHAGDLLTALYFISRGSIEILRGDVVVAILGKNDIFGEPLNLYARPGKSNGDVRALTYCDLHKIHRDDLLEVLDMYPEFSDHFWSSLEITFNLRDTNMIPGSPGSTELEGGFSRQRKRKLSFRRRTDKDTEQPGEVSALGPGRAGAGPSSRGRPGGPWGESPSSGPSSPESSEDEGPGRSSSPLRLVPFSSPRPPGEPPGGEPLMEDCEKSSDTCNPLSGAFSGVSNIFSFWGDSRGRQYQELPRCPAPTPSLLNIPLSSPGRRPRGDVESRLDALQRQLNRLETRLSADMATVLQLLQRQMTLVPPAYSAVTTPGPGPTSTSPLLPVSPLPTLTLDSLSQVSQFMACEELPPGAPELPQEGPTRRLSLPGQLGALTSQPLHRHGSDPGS
As to `Cc1cccc(NC(=O)CCNC(=O)c2ccc(Br)cc2)c1C`, the “hERG current change (%, negative = inhibition) at 1uM” value is on record as 14.6%.
`CN(C(=O)c1ccc2c(c1)C(=O)N(CCC1=CCCCC1)C2=O)C1CCCCC1`: the “hERG current change (%, negative = inhibition) at 1uM” value is 13.1%.
As to `CCOC(=O)N/N=C\c1ccc([N+](=O)[O-])s1`, the “hERG current change (%, negative = inhibition) at 1uM” value is reported as 11.6%.
To `CC(=O)N/C(=C\c1ccccc1)C(=O)OCC(=O)c1ccccc1` belongs 10.8%.
On to `CCN(CC)CCCN1C(=O)C(=O)/C(=C(/O)c2ccc(OC)cc2)C1c1ccco1` (centres unmarked), for which the “hERG current change (%, negative = inhibition) at 1uM” value stood at 9.12%.
With `Cc1ccc(C(=O)N/C(=C/c2cccs2)C(=O)NCC2CCCO2)cc1` (centres unmarked) the figure was 8.14%.
With `COc1ccc(C(=O)C(CO)Oc2ccccc2OC)cc1OC` (centres unmarked) the figure was 10%; with `Cc1ccc(C)c(CN2CCCN(Cc3cc(C)ccc3C)S2(=O)=O)c1`, 18.9%; with `CN(CC(=O)Nc1ccccc1-c1ccccc1)Cc1ccccc1Cl`, 10.3%.
With `CCCn1nnnc1SCC(=O)NCc1ccccc1` the figure was 6.38%.
In the case of `COc1cccc(C(=O)NCC2CCN(c3ccc(S(=O)(=O)N4CCOCC4)cc3)CC2)c1`, the “hERG current change (%, negative = inhibition) at 1uM” value turned out to be 0.663%.
As to `COc1ccc(CNC(=O)[C@]2(C)CCC[C@@]3(C)C4CC[C@@]5(C)C[C@]4(CCC32)CC5=O)cc1` (some centres unmarked), the “hERG current change (%, negative = inhibition) at 1uM” value came to 13%.
Regarding `O=C(c1ccc2nc(N3CCCCC3)sc2c1)N1CCN(c2ccccn2)CC1`, the “hERG current change (%, negative = inhibition) at 1uM” value stood at 3.02%.
With `CC1Cc2ccccc2N1C(=S)Nc1cccc(S(=O)(=O)N(C)C)c1` (centres unmarked) the figure was 9.2%; with `S=c1nc(-c2ccccc2)n(-c2ccccc2)[nH]1`, 12.1%.
With `CSc1ccc(/C=N/NC(=O)c2cccs2)cc1` the figure was 13.4%; with `O=C(OCc1ccc([N+](=O)[O-])cc1)c1cnc(Cl)c(Cl)c1`, 20.7%; with `CCCOc1ccc(C(=O)c2nc3c(n2O)CCCC3)cc1`, 18.1%.
With `O=C(CSc1nnc(SCc2ccc(Cl)cc2)s1)N/N=C/c1ccccc1Cl` the figure was -4.67%.
As for `O=C(NCCCN1CCCC1=O)c1ccc(S(=O)(=O)Nc2cccc(C(F)(F)F)c2)cc1`, the “hERG current change (%, negative = inhibition) at 1uM” value was 16.6%.
To `COc1ccc(C(=O)NCC(c2ccco2)N2CCc3ccccc32)cc1OC` (centres unmarked) belongs -3.98%.
To `COc1ccccc1NC(=O)NNC(=O)C(C)Oc1ccc2ccccc2c1` (centres unmarked) belongs 9.82%; to `N#C/C(=N/Nc1ccc(OC(F)(F)F)cc1)C(N)=S`, 1.06%.
To `Cc1cc(=O)[nH]c(SCC(N)=O)c1C#N` belongs 7.82%; to `O=C(Cn1nnc2ccccc21)N/N=C/c1ccco1`, -5.84%.
In the case of `O=C1/C(=C/c2cccc(F)c2)SC(=S)N1NS(=O)(=O)c1ccccc1`, the “hERG current change (%, negative = inhibition) at 1uM” value worked out at 6.67%.
With `COc1ccc(NS(=O)(=O)CC23CCC(CC2=O)C3(C)C)cc1` (centres unmarked) the figure was -0.524%; with `Cn1c(=NC(=O)CSCC(=O)N2CCOCC2)sc2ccccc21`, 10.9%.
To `O=C(Nc1nc2ccccc2[nH]1)c1cccc(F)c1` belongs 28.3%; to `Cc1ccc(OCCCC(=O)Nc2ccccc2C(F)(F)F)cc1`, 9.07%.
With `CN(Cc1ccccc1)c1nc2c(c(=O)[nH]c(=O)n2C)n1Cc1ccccc1F` the figure was 17.4%.
For the compound `CCCN(CC1CC1)S(=O)(=O)c1ccc(-n2cnnn2)c(OC)c1`, the “hERG current change (%, negative = inhibition) at 1uM” value is -9.37%.
With `O=c1c2c3c(sc2nc2n1N=C(c1cccs1)CS2)CCCC3` the figure was 8.43%.
To `COCCn1nnnc1C(C(C)C)N(Cc1cccnc1)Cc1cc2cc(OC)ccc2[nH]c1=O` (centres unmarked) belongs -3.47%; to `Cc1cccc(OCCN2CCOCC2)c1C`, 10.8%; to `Cc1ccc(N2CC(C(=O)O)CC2=O)cc1` (centres unmarked), 14.4%.
With `Cc1cc2oc(=O)cc(C)c2c(=O)o1` the figure was -1.68%; with `COc1ccc(-n2nc(C(=O)N3CCN(Cc4ccc5c(c4)OCO5)CC3)c3ccccc3c2=O)cc1`, 5.38%.
For the compound `O=S(=O)(NCc1ccccc1)c1ccc(Cl)c(S(=O)(=O)NCc2ccccc2)c1`, the “hERG current change (%, negative = inhibition) at 1uM” value was -0.731%.
With `CCOC(=O)c1sc(=NC(=O)/C=C/c2ccccc2)n(C)c1C` the figure was 5.68%; with `CN1CCN(C(=O)/C=C/c2ccc(Cl)c(Cl)c2)CC1`, 1.42%; with `O=C(CCN1C(=O)/C(=C/c2ccccc2F)SC1=S)NCCCn1ccnc1`, -0.644%.
With `Cl.N#Cc1cccc(C(c2nnnn2Cc2ccccc2)N2CCCC2)c1` (centres unmarked) the figure was -3.7%.
To `Cc1ccccc1NC(=O)COC(=O)c1c(-c2ccccc2)noc1C` belongs 6.78%; to `CCOC(=O)c1cccc(NC(=O)c2cnccn2)c1`, 5.67%; to `O=C(Cn1ncc2c([nH]c3ccccc32)c1=O)NCCc1ccc(Cl)cc1`, 17.1%.
Take `CCNC(=S)Nc1ccc2c(c1)oc1ccccc12`: the “hERG current change (%, negative = inhibition) at 1uM” value is listed as 2.76%.
Turning to `CCOc1ccc(S(=O)(=O)N2CCCCC2)cc1NC(=O)Cc1ccsc1`, the “hERG current change (%, negative = inhibition) at 1uM” value was found to be 14.7%.
With `CCC(CC)CN1CCN=C1N(C)C` the figure was -0.425%; with `Cc1ccc(-n2ncc3c(NCCCOC(C)C)ncnc32)c(C)c1`, 4.85%; with `CCOc1ccc(CN2CCN(Cc3cc4c(cc3Cl)OCO4)CC2CCO)cc1` (centres unmarked), -62.9%.
To `COC(=O)CN1C(=O)Nc2ccc(C)cc2C1c1ccccc1` (centres unmarked) belongs 10.6%; to `COc1ccc(NC(=O)CN(C)C(=O)C2=COCCO2)cc1`, 10.1%; to `O=C(Nc1ccc(F)cc1)c1ccc2ncsc2c1`, 16.4%.
With `COc1ccc(/C=C2\SC(=O)N(CCC(=O)N3CCN(C)CC3)C2=O)cc1` the figure was 5.86%; with `CCN(Cc1ccccc1)CC(O)COc1ccccc1.Cl` (centres unmarked), -4.33%; with `COc1ccc(-c2ccccc2)c2oc(-c3ccco3)cc(=O)c12`, 19.9%.
For `Nc1c(C(=O)NCc2ccccc2)nnn1Cc1ccc(F)cc1`, the “hERG current change (%, negative = inhibition) at 1uM” value stood at 15.9%.
On to `Nc1ncnc2nc(N3CCN(C(=O)c4ccccc4)CC3)[nH]c12`, for which the “hERG current change (%, negative = inhibition) at 1uM” value was determined as 11.9%.
To `Cc1cc(Br)ccc1NC(=O)CN(C)Cc1cccs1` belongs 14.8%; to `Cc1nn(C(C)C(=O)N2CCc3ccccc32)c(C)c1[N+](=O)[O-]` (centres unmarked), 15.3%; to `C=CCn1c(COc2cccc(C)c2)nnc1SCn1nnc2ccccc2c1=O`, 6.15%.
As to `COCc1cc(C)nc(SCC(=O)Oc2ccc(Cl)cc2)c1C#N`, the “hERG current change (%, negative = inhibition) at 1uM” value was determined as 7.76%.
For `O=C(NCc1ccccc1)c1ccc2nccnc2c1`, the “hERG current change (%, negative = inhibition) at 1uM” value is 15.8%.
As for `COC(=O)c1ccccc1NS(=O)(=O)c1ccc(F)cc1`, the “hERG current change (%, negative = inhibition) at 1uM” value is listed as -8.65%.
For the compound `CCCNC(=O)N1CCC(c2nc3ccccc3s2)CC1`, the “hERG current change (%, negative = inhibition) at 1uM” value stood at 5.38%.
With `CC(=O)Nc1ccc(NC(=O)C(C)Sc2nnc(C3CC3)n2-c2ccccc2)cc1` (centres unmarked) the figure was 11.9%; with `O=C(NN=C1CCCCCCCCCCC1)c1ccccc1F`, 9.84%.
With `COCCn1c(SCC(=O)N(C)C2CCS(=O)(=O)C2)nc2ccccc2c1=O` (centres unmarked), the “hERG current change (%, negative = inhibition) at 1uM” value came to 4.99%.
To `COc1ccc(CC(=O)N/N=C(/C)CC(=O)N(C)c2ccccc2)cc1` belongs 13.4%; to `CCOC(=O)C1CCCN(c2cc(=O)n(C3CCCCC3)c(=O)[nH]2)C1` (centres unmarked), -3.71%.
With `CN(C(=O)CSc1ncnc2ccccc12)C1CCS(=O)(=O)C1` (centres unmarked) the figure was 3.18%; with `COc1ccc(C(=O)O)cc1S(=O)(=O)Nc1cccc(C)c1`, -1.21%.
With `O=C(CN1C(=O)C2CC=CCC2C1=O)Nc1ccccc1N1CCCC1` (centres unmarked) the figure was 7.44%; with `O=C(CP(=O)(c1ccccc1)c1ccccc1)N/N=C/c1cc(Br)cc(Br)c1O`, 19.8%; with `CC(=O)Nc1ccc(/C=N/NC(=O)c2cc3ccccc3nc2C)cc1`, 9.08%.
On to `COCCn1c(=S)[nH]c2sc3c(c2c1=O)CCCC3`, for which the “hERG current change (%, negative = inhibition) at 1uM” value was 14.9%.
With `COc1cccc(NC(=O)COC(=O)c2ccc(S(=O)(=O)NCc3ccco3)cc2)c1` the figure was -8.17%; with `CCCCc1nc2cc(C(=O)N3CCCCC3COC)ccc2o1` (centres unmarked), -3.03%; with `COCCNC(=O)C(c1ccc(F)cc1)N(C(=O)CCC(=O)Nc1ccccn1)c1ccc(C)cc1` (centres unmarked), 10.4%.
Consider `CCc1cc(C(=O)NNC(=O)CCl)sc1C`, for which the “hERG current change (%, negative = inhibition) at 1uM” value amounted to 3.78%.
`CC1CC(C)CN(C(=O)C2CCN(C(=O)Nc3ccccc3)CC2)C1` (centres unmarked): the “hERG current change (%, negative = inhibition) at 1uM” value is 20.2%.
For `N#CC1=C(N)OC2=C(C(=O)CCC2)C12CCC1(CC2)OCCO1`, the “hERG current change (%, negative = inhibition) at 1uM” value was 11.9%.
To `CC(C)c1ccc(N=C2NN=C(c3cccs3)CS2)cc1` belongs 1.42%; to `COc1ccc(-c2cc(C(F)(F)F)nc(SCCC(=O)NCc3ccco3)n2)cc1`, 7.01%.
With `O=c1ccc2cc(S(=O)(=O)N3CCN(c4ccccc4F)CC3)ccc2o1` the figure was 4.92%.
For the compound `Cn1c(SCC(=O)N2CCCCC2)nc2c(c1=O)SCC2`, the “hERG current change (%, negative = inhibition) at 1uM” value is on record as 14%.
To `CC(C)(C)NC(=O)NC(=O)CSc1ncccn1` belongs 19.5%; to `CCCc1cc(C(=O)NCc2ccco2)no1`, 7.66%.
To `CCOC(=O)c1ccc(CNCc2ccc(C)cc2)cc1` belongs -1.83%.
With `CCc1ccc(OCc2nnc(SCC(=O)N3CCN(c4ccccc4)CC3)o2)cc1` the figure was 3.11%; with `COc1ccc(OCCSc2n[nH]c(N)n2)cc1`, 9.4%.
